Results taken from patent US20250002588A1 (DIAGONAL THERAPEUTICS, published 2025).

Legend:
Experiment in all cases: cell-based or functional assay
[1] = molecular target: T1, ALK-1/BMPR-2 receptor pair of the PathHunter U2Os dimerization cells (DiscoverX 93-0962C3) (UniProt P37023 22-503; Q13873 27-1038)
[2] = molecular target: T1, ALK-1/BMPR-2 receptor pair of the …; remark: listed apart in the source
[3] = molecular target: T1, ALK-1/BMPR-2 receptor pair of the …; remark: listed apart in the source

T1 sequence (P37023 22-503, chain 1 of 2): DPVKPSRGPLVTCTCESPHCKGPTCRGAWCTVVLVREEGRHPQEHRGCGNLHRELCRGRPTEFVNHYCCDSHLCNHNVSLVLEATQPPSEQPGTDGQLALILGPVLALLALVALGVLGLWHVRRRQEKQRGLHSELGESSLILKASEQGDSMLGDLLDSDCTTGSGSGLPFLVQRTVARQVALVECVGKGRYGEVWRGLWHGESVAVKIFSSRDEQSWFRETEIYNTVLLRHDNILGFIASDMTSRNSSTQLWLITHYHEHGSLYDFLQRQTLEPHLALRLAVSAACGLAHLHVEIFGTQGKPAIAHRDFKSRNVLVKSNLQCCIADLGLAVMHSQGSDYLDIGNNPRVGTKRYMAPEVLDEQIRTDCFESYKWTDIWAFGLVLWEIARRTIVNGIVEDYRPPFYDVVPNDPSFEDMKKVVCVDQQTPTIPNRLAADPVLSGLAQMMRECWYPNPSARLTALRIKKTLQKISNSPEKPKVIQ
T1 sequence (Q13873 27-1038, chain 2 of 2, further chain): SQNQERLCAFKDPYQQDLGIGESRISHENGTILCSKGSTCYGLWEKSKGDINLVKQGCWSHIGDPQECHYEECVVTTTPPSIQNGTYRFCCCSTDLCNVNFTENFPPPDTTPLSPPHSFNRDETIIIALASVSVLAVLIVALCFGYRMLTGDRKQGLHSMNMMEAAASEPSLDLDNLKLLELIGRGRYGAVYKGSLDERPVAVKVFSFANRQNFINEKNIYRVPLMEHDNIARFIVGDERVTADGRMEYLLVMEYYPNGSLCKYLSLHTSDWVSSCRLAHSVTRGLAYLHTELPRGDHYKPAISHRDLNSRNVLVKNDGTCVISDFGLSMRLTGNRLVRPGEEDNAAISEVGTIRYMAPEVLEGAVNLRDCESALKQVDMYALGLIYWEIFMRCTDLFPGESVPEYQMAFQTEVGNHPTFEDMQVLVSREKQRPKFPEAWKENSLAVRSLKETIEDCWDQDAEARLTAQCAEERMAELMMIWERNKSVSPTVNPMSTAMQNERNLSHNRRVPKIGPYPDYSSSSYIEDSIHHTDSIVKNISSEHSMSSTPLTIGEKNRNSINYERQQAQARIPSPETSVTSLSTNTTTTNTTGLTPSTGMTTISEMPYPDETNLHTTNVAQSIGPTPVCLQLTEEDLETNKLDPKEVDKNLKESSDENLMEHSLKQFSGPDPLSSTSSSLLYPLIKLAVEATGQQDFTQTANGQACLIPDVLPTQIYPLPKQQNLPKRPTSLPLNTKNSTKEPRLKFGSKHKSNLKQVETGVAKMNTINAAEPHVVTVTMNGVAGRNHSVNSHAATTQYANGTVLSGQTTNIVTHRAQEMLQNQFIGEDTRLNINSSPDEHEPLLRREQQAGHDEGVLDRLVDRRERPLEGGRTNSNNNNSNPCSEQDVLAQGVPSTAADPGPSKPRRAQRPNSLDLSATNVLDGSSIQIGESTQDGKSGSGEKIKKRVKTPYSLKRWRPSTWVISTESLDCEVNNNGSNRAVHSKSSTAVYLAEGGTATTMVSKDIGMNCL

B1: DGL292 (bispecific antibody, human IgG1, lambda)
heavy: EVQLLESGGGLVQPGGSLRLSCAASGFTFSDYYMTWIRQAPGKGLEWVSSISGGSTYYADSRKGRFTISRDNSENTLYLQMNSLRAEDTAVYYCARDFGVAGWFGQYGMDVWGQGTLVTVSSPAPNLLGGPEVQLLESGGGLVQPGGSLRLSCAASGFTFSSYAMSWVRQAPGKGLEWVANINQDGSEKNYVDSMRGRFTISRDNSKNTLYLQMNSLRAEDTAVYYCAREFDYWGQGTLVTVTSSASTKGPSVFPLAPSSKSTSGGTAALGCLVKDYFPEPVTVSWNSGALTSGVHTFPAVLQSSGLYSLSSVVTVPSSSLGTQTYICNVNHKPSNTKVDKKV[human IgG1 Fc with L234A L235A G237A (EU numbers) omitted here]
light: QSVLTQPPSASGTPGQRVTISCTGSSSNIGAGYDVHWYQQLPGTAPKLLIYRSNQRPSGVPDRFSGSKSGTSASLAISGLRSEDEADYYCSSYAGNYNLVFGGGTKLTVLPAPNLLGGPQSVLAQPPSASGTPGQRVTISCSGSSSNIGSNYVYWYQQLPGTAPKLLIYGNNKRPSGVPDRFSGSKSGTSASLAISGLRSEDEADYYCAAWDDSLNGRVFGGGTKLTVLGQPKAAPSVTLFPPSSEELQANKATLVCLISDFYPGAVTVAWKADSSPVKAGVETTTPSKQSNNKYAASSYLSLTPEQWKSHRSYSCQVTHEGSTVEKTVAPTECS
- % Emax BMP9 [1]: 74%
- EC50 [1]: 0.09 nM
- EMAX (RLU) [1]: 1.96e+06 RLU
- % Emax BMP9 [2]: 57%
- % Emax BMP9 [3]: 60%

B2: DGL812 (bispecific antibody, human IgG1, lambda)
heavy: B1 heavy
light: QSVLTQPPSASGTPGQRVTISCTGSSSNIGAGYDVHWYQQLPGTAPKLLIYRSNQRPSGVPDRFSGSKSGTSASLAISGLRSEDEADYYCSSYAGNYNLVFGGGTKLTVLPLAPQSVLAQPPSASGTPGQRVTISCSGSSSNIGSNYVYWYQQLPGTAPKLLIYGNNKRPSGVPDRFSGSKSGTSASLAISGLRSEDEADYYCAAWDDSLNGRVFGGGTKLTVLGQPKAAPSVTLFPPSSEELQANKATLVCLISDFYPGAVTVAWKADSSPVKAGVETTTPSKQSNNKYAASSYLSLTPEQWKSHRSYSCQVTHEGSTVEKTVAPTECS
- % Emax BMP9 [2]: 62%

B3: DGL811 (bispecific antibody, human IgG1, lambda)
heavy: EVQLLESGGGLVQPGGSLRLSCAASGFTFSDYYMTWIRQAPGKGLEWVSSISGGSTYYADSRKGRFTISRDNSENTLYLQMNSLRAEDTAVYYCARDFGVAGWFGQYGMDVWGQGTLVTVSSPLAPEVQLLESGGGLVQPGGSLRLSCAASGFTFSSYAMSWVRQAPGKGLEWVANINQDGSEKNYVDSMRGRFTISRDNSKNTLYLQMNSLRAEDTAVYYCAREFDYWGQGTLVTVTSSASTKGPSVFPLAPSSKSTSGGTAALGCLVKDYFPEPVTVSWNSGALTSGVHTFPAVLQSSGLYSLSSVVTVPSSSLGTQTYICNVNHKPSNTKVDKKV[human IgG1 Fc with L234A L235A G237A (EU numbers) omitted here]
light: B1 light
- % Emax BMP9 [2]: 73%

B4: DGL289 (bispecific antibody, human IgG1, lambda)
heavy: EVQLLESGGGLVQPGGSLRLSCAASGFTFSIYAMSWVRQAPGKGLEWVSAISGSGGSTYYADSVKGRFTISRDNSKNTLYLQMNSLRAEDTAVYYCARDFDYWGQGTLVTVTSSPAPNLLGGPEVQLLESGGGLVQPGGSLRLSCAASGFTFSNAWMNWVRQAPGKGLEWVSSISSSSSYIYYADSVKGRFTISRDNSKNTLYLQMNSLRAEDTAVYYCARAVAAGGMFWGLDQWGQGTLVTVTSSASTKGPSVFPLAPSSKSTSGGTAALGCLVKDYFPEPVTVSWNSGALTSGVHTFPAVLQSSGLYSLSSVVTVPSSSLGTQTYICNVNHKPSNTKVDKKV[human IgG1 Fc with L234A L235A G237A (EU numbers) omitted here]
light: QSVLTQPPSASGTPGQRVTISCSGSSSNIGSNYVYWYQQLPGTAPKLLIYGNINRPSGVPDRFSGSKSGTSASLAISGLRSEDEADYYCAAWDDSLNGRVFGGGTKLTVLPAPNLLGGPQSVLTQPPSASGTPGQRVTISCSGSRSNIGSNSVHWYQQLPGTAPKLLIYGNSNRPSGVPDRFSGSKSGTSASLAISGLRSEDEADYYCQSYDSSLNDHVVFGGGTKLTVLGQPKAAPSVTLFPPSSEELQANKATLVCLISDFYPGAVTVAWKADSSPVKAGVETTTPSKQSNNKYAASSYLSLTPEQWKSHRSYSCQVTHEGSTVEKTVAPTECS
- % Emax BMP9 [1]: 68%
- EC50 [1]: 2.4 nM
- EMAX (RLU) [1]: 1.8e+06 RLU

B5: DGL291 (bispecific antibody, human IgG1, lambda)
heavy: EVQLLESGGGLVQPGGSLRLSCAASGFTFSSYAMSWVRQAPGKGLEWVANINQDGSEKNYVDSMRGRFTISRDNSKNTLYLQMNSLRAEDTAVYYCAREFDYWGQGTLVTVTSSPAPNLLGGPEVQLLESGGGLVQPGGSLRLSCAASGFTFSDYYMTWIRQAPGKGLEWVSSISGGSTYYADSRKGRFTISRDNSENTLYLQMNSLRAEDTAVYYCARDFGVAGWFGQYGMDVWGQGTLVTVSSASTKGPSVFPLAPSSKSTSGGTAALGCLVKDYFPEPVTVSWNSGALTSGVHTFPAVLQSSGLYSLSSVVTVPSSSLGTQTYICNVNHKPSNTKVDKKV[human IgG1 Fc with L234A L235A G237A (EU numbers) omitted here]
light: QSVLAQPPSASGTPGQRVTISCSGSSSNIGSNYVYWYQQLPGTAPKLLIYGNNKRPSGVPDRFSGSKSGTSASLAISGLRSEDEADYYCAAWDDSLNGRVFGGGTKLTVLPAPNLLGGPQSVLTQPPSASGTPGQRVTISCTGSSSNIGAGYDVHWYQQLPGTAPKLLIYRSNQRPSGVPDRFSGSKSGTSASLAISGLRSEDEADYYCSSYAGNYNLVFGGGTKLTVLGQPKAAPSVTLFPPSSEELQANKATLVCLISDFYPGAVTVAWKADSSPVKAGVETTTPSKQSNNKYAASSYLSLTPEQWKSHRSYSCQVTHEGSTVEKTVAPTECS
- % Emax BMP9 [1]: 36%
- EC50 [1]: 0.2 nM
- EMAX (RLU) [1]: 952000 RLU

B6: DGL290 (bispecific antibody, human IgG1, lambda)
heavy: EVQLLESGGGLVQPGGSLRLSCAASGFTFSNAWMNWVRQAPGKGLEWVSSISSSSSYIYYADSVKGRFTISRDNSKNTLYLQMNSLRAEDTAVYYCARAVAAGGMFWGLDQWGQGTLVTVTSSPAPNLLGGPEVQLLESGGGLVQPGGSLRLSCAASGFTFSIYAMSWVRQAPGKGLEWVSAISGSGGSTYYADSVKGRFTISRDNSKNTLYLQMNSLRAEDTAVYYCARDFDYWGQGTLVTVTSSASTKGPSVFPLAPSSKSTSGGTAALGCLVKDYFPEPVTVSWNSGALTSGVHTFPAVLQSSGLYSLSSVVTVPSSSLGTQTYICNVNHKPSNTKVDKKV[human IgG1 Fc with L234A L235A G237A (EU numbers) omitted here]
light: QSVLTQPPSASGTPGQRVTISCSGSRSNIGSNSVHWYQQLPGTAPKLLIYGNSNRPSGVPDRFSGSKSGTSASLAISGLRSEDEADYYCQSYDSSLNDHVVFGGGTKLTVLPAPNLLGGPQSVLTQPPSASGTPGQRVTISCSGSSSNIGSNYVYWYQQLPGTAPKLLIYGNINRPSGVPDRFSGSKSGTSASLAISGLRSEDEADYYCAAWDDSLNGRVFGGGTKLTVLGQPKAAPSVTLFPPSSEELQANKATLVCLISDFYPGAVTVAWKADSSPVKAGVETTTPSKQSNNKYAASSYLSLTPEQWKSHRSYSCQVTHEGSTVEKTVAPTECS
- % Emax BMP9 [1]: 69%
- EC50 [1]: 5.3 nM
- EMAX (RLU) [1]: 1.82e+06 RLU

Where two headings read alike, the source gives them in different places.
